In article PMC9911399, “Two distinct binding modes provide the RNA-binding protein RbFox with extraordinary sequence specificity”:
Residue numbers refer to the chain shown, from its start. The list shows a part of the results.

T1: RBFOX1 RRM (Homo sapiens, UniProt Q9NWB1 109-208)
T1 sequence: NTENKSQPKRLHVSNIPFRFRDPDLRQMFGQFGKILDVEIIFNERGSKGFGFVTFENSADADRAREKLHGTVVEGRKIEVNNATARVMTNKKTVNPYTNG

B1: GAAGCUG (DNA:RNA)
RNA: GGGAGACCGGAAUUCAGAUUGUCCGAAGCUGUUAAAUCCCGUCGUAGCCACCA
DNA 1: CAATCTGAATTCCGGTCTCCC
DNA 2: TGGTGGCTACGACGGGATT
B2: CGUUCAU (DNA:RNA)
RNA: B1 RNA with G25C, A26G, A27U, G28U, U30A, G31U
DNA 1: CAATCTGAATTCCGGTCTCCC
DNA 2: TGGTGGCTACGACGGGATT
B3: GCUCACA (DNA:RNA)
RNA: B1 RNA with A26C, A27U, G28C, C29A, U30C, G31A
DNA 1: CAATCTGAATTCCGGTCTCCC
DNA 2: TGGTGGCTACGACGGGATT
B4: CUAGGUU (DNA:RNA)
RNA: B1 RNA with G25C, A26U, C29G, G31U
DNA 1: CAATCTGAATTCCGGTCTCCC
DNA 2: TGGTGGCTACGACGGGATT
B5: UUCUCGU (DNA:RNA)
RNA: B1 RNA with G25U, A26U, A27C, G28U, U30G, G31U
DNA 1: CAATCTGAATTCCGGTCTCCC
DNA 2: TGGTGGCTACGACGGGATT
B6: GAUUGAG (DNA:RNA)
RNA: B1 RNA with A27U, G28U, C29G, U30A
DNA 1: CAATCTGAATTCCGGTCTCCC
DNA 2: TGGTGGCTACGACGGGATT
B7: CUGGUAC (DNA:RNA)
RNA: B1 RNA with G25C, A26U, A27G, C29U, U30A, G31C
DNA 1: CAATCTGAATTCCGGTCTCCC
DNA 2: TGGTGGCTACGACGGGATT
B8: AGUCGGA (DNA:RNA)
RNA: GGGAGACCGGAAUUCAGAUUGUCCAGUCGGAUUAAAUCCCGUCGUAGCCACCA
DNA 1: CAATCTGAATTCCGGTCTCCC
DNA 2: TGGTGGCTACGACGGGATT
B9: CUCAGGC (DNA:RNA)
RNA: B8 RNA with A25C, G26U, U27C, C28A, A31C
DNA 1: CAATCTGAATTCCGGTCTCCC
DNA 2: TGGTGGCTACGACGGGATT
B10: GACUCCU (DNA:RNA)
RNA: B1 RNA with A27C, G28U, U30C, G31U
DNA 1: CAATCTGAATTCCGGTCTCCC
DNA 2: TGGTGGCTACGACGGGATT
B11: AGCAGAA (DNA:RNA)
RNA: B8 RNA with U27C, C28A, G30A
DNA 1: CAATCTGAATTCCGGTCTCCC
DNA 2: TGGTGGCTACGACGGGATT
B12: ACUUGUC (DNA:RNA)
RNA: B8 RNA with G26C, C28U, G30U, A31C
DNA 1: CAATCTGAATTCCGGTCTCCC
DNA 2: TGGTGGCTACGACGGGATT
B13: AAGAAUA (DNA:RNA)
RNA: B8 RNA with G26A, U27G, C28A, G29A, G30U
DNA 1: CAATCTGAATTCCGGTCTCCC
DNA 2: TGGTGGCTACGACGGGATT
B14: AACGGCG (DNA:RNA)
RNA: B1 RNA with G25A, A27C, C29G, U30C
DNA 1: CAATCTGAATTCCGGTCTCCC
DNA 2: TGGTGGCTACGACGGGATT
B15: AGAGCUC (DNA:RNA)
RNA: B1 RNA with G25A, A26G, G31C
DNA 1: CAATCTGAATTCCGGTCTCCC
DNA 2: TGGTGGCTACGACGGGATT
B16: UAGUGAG (DNA:RNA)
RNA: B1 RNA with G25U, A27G, G28U, C29G, U30A
DNA 1: CAATCTGAATTCCGGTCTCCC
DNA 2: TGGTGGCTACGACGGGATT
B17: CUGUCUA (DNA:RNA)
RNA: B1 RNA with G25C, A26U, A27G, G28U, G31A
DNA 1: CAATCTGAATTCCGGTCTCCC
DNA 2: TGGTGGCTACGACGGGATT
B18: AAUUCAU (DNA:RNA)
RNA: B8 RNA with G26A, C28U, G29C, G30A, A31U
DNA 1: CAATCTGAATTCCGGTCTCCC
DNA 2: TGGTGGCTACGACGGGATT
B19: CCUGCAA (DNA:RNA)
RNA: B8 RNA with A25C, G26C, C28G, G29C, G30A
DNA 1: CAATCTGAATTCCGGTCTCCC
DNA 2: TGGTGGCTACGACGGGATT
B20: GGCAAAC (DNA:RNA)
RNA: B8 RNA with A25G, U27C, C28A, G29A, G30A, A31C
DNA 1: CAATCTGAATTCCGGTCTCCC
DNA 2: TGGTGGCTACGACGGGATT
B21: GGAGUAA (DNA:RNA)
RNA: B1 RNA with A26G, C29U, U30A, G31A
DNA 1: CAATCTGAATTCCGGTCTCCC
DNA 2: TGGTGGCTACGACGGGATT
B22: CGGCUUA (DNA:RNA)
RNA: B8 RNA with A25C, U27G, G29U, G30U
DNA 1: CAATCTGAATTCCGGTCTCCC
DNA 2: TGGTGGCTACGACGGGATT
B23: UAGUUUC (DNA:RNA)
RNA: B1 RNA with G25U, A27G, G28U, C29U, G31C
DNA 1: CAATCTGAATTCCGGTCTCCC
DNA 2: TGGTGGCTACGACGGGATT
B24: GACUUUA (DNA:RNA)
RNA: B1 RNA with A27C, G28U, C29U, G31A
DNA 1: CAATCTGAATTCCGGTCTCCC
DNA 2: TGGTGGCTACGACGGGATT
B25: AAGAAUG (DNA:RNA)
RNA: B1 RNA with G25A, A27G, G28A, C29A
DNA 1: CAATCTGAATTCCGGTCTCCC
DNA 2: TGGTGGCTACGACGGGATT
B26: UCUCUCG (DNA:RNA)
RNA: B8 RNA with A25U, G26C, G29U, G30C, A31G
DNA 1: CAATCTGAATTCCGGTCTCCC
DNA 2: TGGTGGCTACGACGGGATT
B27: AUCGUAC (DNA:RNA)
RNA: B8 RNA with G26U, U27C, C28G, G29U, G30A, A31C
DNA 1: CAATCTGAATTCCGGTCTCCC
DNA 2: TGGTGGCTACGACGGGATT
B28: GAACGGA (DNA:RNA)
RNA: B8 RNA with A25G, G26A, U27A
DNA 1: CAATCTGAATTCCGGTCTCCC
DNA 2: TGGTGGCTACGACGGGATT
B29: UUUACUA (DNA:RNA)
RNA: B8 RNA with A25U, G26U, C28A, G29C, G30U
DNA 1: CAATCTGAATTCCGGTCTCCC
DNA 2: TGGTGGCTACGACGGGATT
B30: CUCCAAG (DNA:RNA)
RNA: B8 RNA with A25C, G26U, U27C, G29A, G30A, A31G
DNA 1: CAATCTGAATTCCGGTCTCCC
DNA 2: TGGTGGCTACGACGGGATT
B31: ACAGUUU (DNA:RNA)
RNA: B1 RNA with G25A, A26C, C29U, G31U
DNA 1: CAATCTGAATTCCGGTCTCCC
DNA 2: TGGTGGCTACGACGGGATT

target: T1, RBFOX1 RRM; experiment: EMSA; HiTS-Eq, 1 nM pool, 10 min; buffer printed only for the single-RNA assays: 10 mM Tris pH 7.5, 150 mM NaCl, 3.4 mM EDTA, 0.001% NP-40, 30 C; details: tags: His6 N-terminal (pET28a); label: 5' 32P
Outline: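 Purified RbFox RRM (wild type or mutant) was equilibrated for 10 min in 50 µL with 1 nM of a 5′-radiolabelled pool of RNA with 7 randomized nucleotides, its flanks annealed to DNA oligonucleotides, across increasing protein concentrations. Free RNA was separated by 8% native PAGE, excised, reverse-transcribed, PCR-barcoded and sequenced on an Illumina HiSeq 2500. Relative association constants came from read-count changes of each variant against the control reaction, normalised to the cognate motif.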

| Binder | binding signal |
| --- | --- |
| B1 | 0.0153 KA relative to UGCAUGU |
| B2 | 0.00774 KA relative to UGCAUGU |
| B3 | 0.00726 KA relative to UGCAUGU |
| B4 | 0.0122 KA relative to UGCAUGU |
| B5 | 0.013 KA relative to UGCAUGU |
| B6 | 0.0255 KA relative to UGCAUGU |
| B7 | 0.0198 KA relative to UGCAUGU |
| B8 | 0.00462 KA relative to UGCAUGU |
| B9 | 0.00843 KA relative to UGCAUGU |
| B10 | 0.00767 KA relative to UGCAUGU |
| B11 | 0.00732 KA relative to UGCAUGU |
| B12 | 0.0105 KA relative to UGCAUGU |
| B13 | 0.00282 KA relative to UGCAUGU |
| B14 | 0.00907 KA relative to UGCAUGU |
| B15 | 0.0113 KA relative to UGCAUGU |
| B16 | 0.00819 KA relative to UGCAUGU |

| Binder | binding signal |
| --- | --- |
| B17 | 0.00658 KA relative to UGCAUGU |
| B18 | 0.00344 KA relative to UGCAUGU |
| B19 | 0.00899 KA relative to UGCAUGU |
| B20 | 0.012 KA relative to UGCAUGU |
| B21 | 0.0102 KA relative to UGCAUGU |
| B22 | 0.00887 KA relative to UGCAUGU |
| B23 | 0.0169 KA relative to UGCAUGU |
| B24 | 0.00394 KA relative to UGCAUGU |
| B25 | 0.0156 KA relative to UGCAUGU |
| B26 | 0.00731 KA relative to UGCAUGU |
| B27 | 0.00521 KA relative to UGCAUGU |
| B28 | 0.00529 KA relative to UGCAUGU |
| B29 | 0.00506 KA relative to UGCAUGU |
| B30 | 0.00188 KA relative to UGCAUGU |
| B31 | 0.0041 KA relative to UGCAUGU |
